Source: publication PMC9674701
No constants are given. Whether binding was seen depends on the method and setting. Some entries that bind do so weakly or less than the wild type.

The chains behind the UniProt entries cited, without tags or fusion partners. Where a name states a change or a piece, a line headed by the entry shows the natural chain unless it says otherwise. A line that says so, or that is headed by a name, gives the form on record, which may keep a tag or linker.
UniProt P02454: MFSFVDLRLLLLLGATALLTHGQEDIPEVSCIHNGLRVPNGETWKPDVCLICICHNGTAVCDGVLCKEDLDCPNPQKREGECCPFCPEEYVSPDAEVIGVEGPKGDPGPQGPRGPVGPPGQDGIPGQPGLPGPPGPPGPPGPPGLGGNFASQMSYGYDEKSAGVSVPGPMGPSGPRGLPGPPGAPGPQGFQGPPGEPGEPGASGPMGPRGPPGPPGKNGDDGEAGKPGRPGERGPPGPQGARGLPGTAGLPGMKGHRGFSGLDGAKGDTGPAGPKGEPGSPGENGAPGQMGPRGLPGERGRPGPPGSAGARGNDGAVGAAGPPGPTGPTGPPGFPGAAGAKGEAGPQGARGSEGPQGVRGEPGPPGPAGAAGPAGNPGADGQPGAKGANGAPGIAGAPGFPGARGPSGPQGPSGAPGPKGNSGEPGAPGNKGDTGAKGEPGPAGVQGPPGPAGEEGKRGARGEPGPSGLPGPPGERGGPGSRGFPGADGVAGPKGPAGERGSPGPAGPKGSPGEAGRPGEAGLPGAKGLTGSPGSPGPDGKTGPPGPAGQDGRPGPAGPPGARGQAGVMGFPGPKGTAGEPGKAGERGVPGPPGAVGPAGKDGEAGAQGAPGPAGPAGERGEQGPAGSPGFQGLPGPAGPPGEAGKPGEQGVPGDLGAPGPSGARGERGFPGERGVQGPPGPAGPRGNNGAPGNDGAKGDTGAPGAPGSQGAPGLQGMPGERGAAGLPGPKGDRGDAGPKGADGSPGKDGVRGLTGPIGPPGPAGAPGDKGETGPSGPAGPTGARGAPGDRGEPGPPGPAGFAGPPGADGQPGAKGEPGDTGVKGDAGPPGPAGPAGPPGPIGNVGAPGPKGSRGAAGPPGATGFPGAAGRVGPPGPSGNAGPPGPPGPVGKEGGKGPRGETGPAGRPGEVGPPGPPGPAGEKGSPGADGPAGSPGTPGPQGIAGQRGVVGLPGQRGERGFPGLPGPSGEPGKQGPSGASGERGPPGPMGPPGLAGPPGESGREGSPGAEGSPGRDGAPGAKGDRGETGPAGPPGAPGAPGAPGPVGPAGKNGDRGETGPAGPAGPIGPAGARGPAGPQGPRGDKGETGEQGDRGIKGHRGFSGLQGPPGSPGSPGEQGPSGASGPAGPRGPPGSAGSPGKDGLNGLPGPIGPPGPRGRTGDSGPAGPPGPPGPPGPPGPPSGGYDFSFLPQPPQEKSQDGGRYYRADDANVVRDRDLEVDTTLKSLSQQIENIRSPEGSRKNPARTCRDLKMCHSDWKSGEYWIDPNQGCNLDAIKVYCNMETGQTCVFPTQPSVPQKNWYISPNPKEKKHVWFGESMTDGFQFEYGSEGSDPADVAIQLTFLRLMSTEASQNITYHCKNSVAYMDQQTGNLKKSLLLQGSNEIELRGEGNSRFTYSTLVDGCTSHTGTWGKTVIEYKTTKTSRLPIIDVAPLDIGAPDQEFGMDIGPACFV
UniProt P12109: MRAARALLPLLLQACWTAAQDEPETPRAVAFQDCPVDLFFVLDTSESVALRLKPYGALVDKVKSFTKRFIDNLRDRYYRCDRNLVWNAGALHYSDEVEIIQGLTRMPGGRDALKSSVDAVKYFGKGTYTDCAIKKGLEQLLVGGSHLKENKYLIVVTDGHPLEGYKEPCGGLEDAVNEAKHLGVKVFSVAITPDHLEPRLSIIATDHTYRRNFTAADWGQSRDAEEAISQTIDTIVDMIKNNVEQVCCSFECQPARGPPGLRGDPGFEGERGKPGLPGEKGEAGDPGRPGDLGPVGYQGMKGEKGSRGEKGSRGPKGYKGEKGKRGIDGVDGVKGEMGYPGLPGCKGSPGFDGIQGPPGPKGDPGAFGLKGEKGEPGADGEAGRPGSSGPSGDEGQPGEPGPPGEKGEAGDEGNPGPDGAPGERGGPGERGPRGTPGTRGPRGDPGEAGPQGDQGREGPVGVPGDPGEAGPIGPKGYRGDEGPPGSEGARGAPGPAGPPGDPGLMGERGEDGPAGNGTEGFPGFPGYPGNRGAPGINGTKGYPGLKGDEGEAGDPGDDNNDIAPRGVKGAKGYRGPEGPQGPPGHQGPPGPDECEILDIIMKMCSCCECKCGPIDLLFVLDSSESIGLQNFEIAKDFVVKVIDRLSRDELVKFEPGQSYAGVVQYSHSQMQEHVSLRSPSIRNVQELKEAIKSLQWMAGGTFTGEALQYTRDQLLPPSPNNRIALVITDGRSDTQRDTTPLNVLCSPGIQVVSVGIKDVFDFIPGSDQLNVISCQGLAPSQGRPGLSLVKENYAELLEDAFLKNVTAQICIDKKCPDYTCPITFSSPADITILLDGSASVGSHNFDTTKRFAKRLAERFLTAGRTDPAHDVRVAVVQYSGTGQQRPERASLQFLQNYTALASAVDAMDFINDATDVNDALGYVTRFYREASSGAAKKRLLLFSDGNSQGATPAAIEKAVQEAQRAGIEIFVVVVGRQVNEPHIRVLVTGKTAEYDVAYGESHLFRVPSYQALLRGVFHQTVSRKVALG
UniProt P02466: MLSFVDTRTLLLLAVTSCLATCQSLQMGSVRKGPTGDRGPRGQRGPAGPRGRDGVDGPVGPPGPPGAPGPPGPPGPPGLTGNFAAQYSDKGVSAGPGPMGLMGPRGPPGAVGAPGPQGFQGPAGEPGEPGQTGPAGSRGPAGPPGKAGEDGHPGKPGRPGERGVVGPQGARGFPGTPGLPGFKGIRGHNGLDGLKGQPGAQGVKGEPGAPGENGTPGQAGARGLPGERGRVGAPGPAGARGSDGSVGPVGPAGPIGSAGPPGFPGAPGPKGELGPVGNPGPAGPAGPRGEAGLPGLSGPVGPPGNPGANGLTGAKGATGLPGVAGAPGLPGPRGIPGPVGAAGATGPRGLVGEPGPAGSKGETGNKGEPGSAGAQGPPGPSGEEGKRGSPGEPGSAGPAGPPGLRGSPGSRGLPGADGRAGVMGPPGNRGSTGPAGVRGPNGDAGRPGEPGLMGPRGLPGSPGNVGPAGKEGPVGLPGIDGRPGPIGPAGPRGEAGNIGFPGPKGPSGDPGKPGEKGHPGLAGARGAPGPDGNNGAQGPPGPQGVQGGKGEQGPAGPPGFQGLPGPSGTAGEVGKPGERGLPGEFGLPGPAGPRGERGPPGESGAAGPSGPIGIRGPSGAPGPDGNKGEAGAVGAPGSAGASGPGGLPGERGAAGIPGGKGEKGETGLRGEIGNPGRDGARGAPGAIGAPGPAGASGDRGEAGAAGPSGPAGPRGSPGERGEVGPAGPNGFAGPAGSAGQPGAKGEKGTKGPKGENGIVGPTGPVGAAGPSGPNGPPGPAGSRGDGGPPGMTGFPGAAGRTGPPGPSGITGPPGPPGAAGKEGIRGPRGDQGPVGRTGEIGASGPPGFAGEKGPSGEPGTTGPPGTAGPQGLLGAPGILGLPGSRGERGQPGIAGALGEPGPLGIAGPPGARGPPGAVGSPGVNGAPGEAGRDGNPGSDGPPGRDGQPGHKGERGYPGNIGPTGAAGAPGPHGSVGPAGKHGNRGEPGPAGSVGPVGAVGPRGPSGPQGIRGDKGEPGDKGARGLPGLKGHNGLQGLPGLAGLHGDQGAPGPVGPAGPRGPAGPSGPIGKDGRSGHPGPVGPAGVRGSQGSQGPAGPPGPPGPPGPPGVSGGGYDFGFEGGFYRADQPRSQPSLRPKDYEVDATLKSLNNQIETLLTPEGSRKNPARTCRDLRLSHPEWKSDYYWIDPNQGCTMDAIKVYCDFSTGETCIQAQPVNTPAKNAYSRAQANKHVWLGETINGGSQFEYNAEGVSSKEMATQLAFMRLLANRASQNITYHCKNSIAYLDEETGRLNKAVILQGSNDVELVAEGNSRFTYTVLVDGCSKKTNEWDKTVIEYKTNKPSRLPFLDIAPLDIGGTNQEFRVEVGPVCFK
UniProt P02462: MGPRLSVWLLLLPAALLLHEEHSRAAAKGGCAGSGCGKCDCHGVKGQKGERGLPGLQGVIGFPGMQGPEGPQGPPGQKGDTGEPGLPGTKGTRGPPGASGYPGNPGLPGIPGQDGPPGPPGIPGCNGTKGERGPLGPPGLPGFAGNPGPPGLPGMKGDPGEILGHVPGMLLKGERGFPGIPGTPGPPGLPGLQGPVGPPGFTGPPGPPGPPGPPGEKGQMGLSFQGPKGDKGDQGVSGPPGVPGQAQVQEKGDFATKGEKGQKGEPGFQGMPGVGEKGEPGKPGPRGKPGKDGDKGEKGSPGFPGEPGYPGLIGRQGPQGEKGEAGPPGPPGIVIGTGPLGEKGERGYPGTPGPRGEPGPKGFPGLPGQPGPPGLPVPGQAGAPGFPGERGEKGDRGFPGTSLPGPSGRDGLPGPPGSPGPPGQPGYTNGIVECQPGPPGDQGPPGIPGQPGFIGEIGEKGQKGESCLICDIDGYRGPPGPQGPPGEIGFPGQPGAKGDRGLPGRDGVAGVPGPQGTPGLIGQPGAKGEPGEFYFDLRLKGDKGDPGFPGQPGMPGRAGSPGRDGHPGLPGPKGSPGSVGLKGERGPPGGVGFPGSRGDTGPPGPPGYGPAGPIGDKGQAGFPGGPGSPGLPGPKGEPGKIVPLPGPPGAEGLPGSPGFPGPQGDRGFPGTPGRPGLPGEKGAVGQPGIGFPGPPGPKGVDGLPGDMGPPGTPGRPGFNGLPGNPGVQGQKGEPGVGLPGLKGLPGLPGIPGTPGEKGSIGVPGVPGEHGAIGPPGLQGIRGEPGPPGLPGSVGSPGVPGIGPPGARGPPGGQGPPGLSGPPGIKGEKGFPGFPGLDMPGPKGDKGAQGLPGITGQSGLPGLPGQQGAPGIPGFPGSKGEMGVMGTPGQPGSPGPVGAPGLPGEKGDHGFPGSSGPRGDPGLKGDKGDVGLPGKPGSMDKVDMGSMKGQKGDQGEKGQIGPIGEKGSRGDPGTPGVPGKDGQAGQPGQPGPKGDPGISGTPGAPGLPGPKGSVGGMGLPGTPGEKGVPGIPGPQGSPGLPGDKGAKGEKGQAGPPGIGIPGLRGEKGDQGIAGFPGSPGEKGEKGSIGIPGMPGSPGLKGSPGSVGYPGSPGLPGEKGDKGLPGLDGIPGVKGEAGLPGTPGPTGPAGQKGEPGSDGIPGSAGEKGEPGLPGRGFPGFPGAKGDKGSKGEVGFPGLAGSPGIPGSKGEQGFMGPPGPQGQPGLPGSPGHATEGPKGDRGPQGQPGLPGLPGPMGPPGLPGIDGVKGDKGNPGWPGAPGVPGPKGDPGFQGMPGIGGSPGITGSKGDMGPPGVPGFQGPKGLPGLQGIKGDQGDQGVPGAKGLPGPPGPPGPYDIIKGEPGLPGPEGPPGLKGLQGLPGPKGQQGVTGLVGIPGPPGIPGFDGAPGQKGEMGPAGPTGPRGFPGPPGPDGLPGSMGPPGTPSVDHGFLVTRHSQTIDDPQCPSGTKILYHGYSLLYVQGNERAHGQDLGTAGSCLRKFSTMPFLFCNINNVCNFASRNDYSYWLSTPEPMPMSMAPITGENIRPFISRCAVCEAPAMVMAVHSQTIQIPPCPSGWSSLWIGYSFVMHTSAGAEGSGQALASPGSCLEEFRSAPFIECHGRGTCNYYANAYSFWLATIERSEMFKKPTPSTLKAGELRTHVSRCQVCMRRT
UniProt Q9H6X2: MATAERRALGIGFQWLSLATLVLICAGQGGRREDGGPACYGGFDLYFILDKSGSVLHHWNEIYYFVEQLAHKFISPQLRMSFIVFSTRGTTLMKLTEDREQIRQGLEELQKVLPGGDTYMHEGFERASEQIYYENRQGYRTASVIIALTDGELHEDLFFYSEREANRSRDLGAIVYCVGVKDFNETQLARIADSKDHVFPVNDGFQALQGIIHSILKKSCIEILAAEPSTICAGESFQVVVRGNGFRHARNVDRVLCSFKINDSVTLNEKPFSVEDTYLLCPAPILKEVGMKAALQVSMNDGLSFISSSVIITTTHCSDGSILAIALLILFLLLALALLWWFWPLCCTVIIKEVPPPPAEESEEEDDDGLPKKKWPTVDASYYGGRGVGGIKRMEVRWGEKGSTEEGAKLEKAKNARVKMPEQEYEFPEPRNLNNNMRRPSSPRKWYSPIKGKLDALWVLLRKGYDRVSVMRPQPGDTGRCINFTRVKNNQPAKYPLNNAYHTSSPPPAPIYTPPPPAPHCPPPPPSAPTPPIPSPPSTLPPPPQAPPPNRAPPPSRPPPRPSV
TEM8-D150A-AP (Q9H6X2, form named): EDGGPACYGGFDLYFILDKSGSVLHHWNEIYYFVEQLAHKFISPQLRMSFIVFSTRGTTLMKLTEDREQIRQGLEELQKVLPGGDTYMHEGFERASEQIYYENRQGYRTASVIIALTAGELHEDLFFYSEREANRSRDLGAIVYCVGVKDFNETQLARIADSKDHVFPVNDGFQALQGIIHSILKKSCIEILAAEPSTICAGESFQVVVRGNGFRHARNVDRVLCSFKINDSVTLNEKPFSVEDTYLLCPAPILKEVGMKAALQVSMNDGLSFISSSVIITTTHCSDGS

Legend:
[1] = target: collagen I (Sigma, C3867) (UniProt P02454); assay: cell binding assay on coated plates; 1 ug of ECM protein, PA or BSA coated on 96-well tissue culture plates; CHO or CHO-TEM8 cells, 25,000 cells/well, in Hams F12 with 10% FBS, 1 hour at 37 C; washed twice; bound cells measured with Alamar blue; only the target purified
collagen VI [2] = target: collagen VI (UniProt P12109); assay: as above
[3] = target: T1, rat tail collagen I (rat) (UniProt P02454+P02466); assay: ELISA; collagen I (fibrillar film, e.g. 200 ug/mL, neutralised in 50 mM Tris-HCl pH 8, 37 C 2 h), PA or other ECM proteins coated on plates; purified AP fusion proteins added in D-PBS with calcium, magnesium and 0.5% BSA, 4 C overnight; AP activity with PNPP at 405 nm; in later assays DMEM-F12/0.5% BSA/1.0% Tween 20 and HRP-anti-PLAP at 450 nm; both purified
collagen IV = collagen IV (UniProt P02462); assay: as above
collagen VI [4] = target: collagen VI (UniProt P12109); assay: as above
[5] = target: T1, rat tail collagen I (rat); assay: ELISA; TEM8-AP on immobilised col1 in the absence or presence of 20 ug/mL of m830 anti-TEM8 antibody; both purified

TEM8 on TEM8 overexpressing CHO cells (CHO-TEM8), wild type (from UniProt Q9H6X2 33-564) (receptor)
binding [1]: binds | binding (collagen VI [2]): binds

TEM8-D150A-AP (from UniProt Q9H6X2 33-321) (receptor)
binding [3]: no binding

alkaline phosphatase alone (AP) (from UniProt P05187 23-506) (enzyme)
binding [3]: no binding

alkaline phosphatase-tagged TEM8 extracellular domain (TEM8-AP), wild type (from UniProt Q9H6X2 33-321) (receptor)
binding [3]: binds | binding (collagen IV): no binding | binding (collagen VI [4]): binds | binding [5]: binds
